This note sets out measurements from article PMC4336329 (PLoS ONE, 2015).

The structures appear in SMILES notation. In all, about 310,000 compounds went through this assay and about 14,000 (4.5%) showed an effect of 50% or more. Effects have a minus sign here. Some of the results follow.
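Further: peak tail current of the secondary pulse compared with the same well before compound.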

The target in this assay is human ether-à-go-go-related gene (hERG) potassium channel (human, UniProt Q12809). Nature of the assay: primary screen, population patch clamp on CHO cells stably expressing hERG.
Chain of human ether-à-go-go-related gene (hERG) potassium channel (Q12809 whole entry, looked up): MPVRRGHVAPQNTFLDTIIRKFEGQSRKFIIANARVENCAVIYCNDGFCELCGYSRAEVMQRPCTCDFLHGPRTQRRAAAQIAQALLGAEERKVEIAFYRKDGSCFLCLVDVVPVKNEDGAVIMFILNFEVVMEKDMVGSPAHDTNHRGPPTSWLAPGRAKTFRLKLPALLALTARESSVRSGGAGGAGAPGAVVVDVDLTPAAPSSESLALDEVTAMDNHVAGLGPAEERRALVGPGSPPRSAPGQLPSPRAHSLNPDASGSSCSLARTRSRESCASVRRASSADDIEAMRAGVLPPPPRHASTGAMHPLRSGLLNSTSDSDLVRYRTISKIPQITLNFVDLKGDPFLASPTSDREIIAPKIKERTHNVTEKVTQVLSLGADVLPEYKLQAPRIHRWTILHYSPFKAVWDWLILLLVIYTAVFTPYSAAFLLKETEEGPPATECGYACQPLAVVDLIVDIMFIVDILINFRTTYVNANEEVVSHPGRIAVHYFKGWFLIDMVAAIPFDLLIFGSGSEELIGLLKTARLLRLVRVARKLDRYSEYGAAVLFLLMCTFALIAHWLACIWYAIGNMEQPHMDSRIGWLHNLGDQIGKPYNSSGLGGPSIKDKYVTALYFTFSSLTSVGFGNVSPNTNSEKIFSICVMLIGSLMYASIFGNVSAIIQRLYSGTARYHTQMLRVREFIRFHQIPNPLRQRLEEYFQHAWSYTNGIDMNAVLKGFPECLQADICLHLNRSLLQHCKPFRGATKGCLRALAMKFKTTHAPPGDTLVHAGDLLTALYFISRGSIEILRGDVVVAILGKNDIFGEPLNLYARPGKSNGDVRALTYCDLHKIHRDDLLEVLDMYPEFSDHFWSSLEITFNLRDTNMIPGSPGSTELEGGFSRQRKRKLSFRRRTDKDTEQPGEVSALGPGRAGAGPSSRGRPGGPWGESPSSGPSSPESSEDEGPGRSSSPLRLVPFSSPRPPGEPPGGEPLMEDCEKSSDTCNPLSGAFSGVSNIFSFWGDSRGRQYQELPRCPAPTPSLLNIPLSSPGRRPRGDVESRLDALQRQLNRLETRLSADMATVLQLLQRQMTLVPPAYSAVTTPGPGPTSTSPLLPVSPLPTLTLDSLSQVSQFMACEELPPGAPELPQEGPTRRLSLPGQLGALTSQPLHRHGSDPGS
Take `Cc1csc(NC(=O)C2CCCC2)n1`: the “hERG current change (%, negative = inhibition) at 10uM” value is recorded as 12.7%.

Turning to `CCN(CC)CCCNC(CC(=O)Nc1cccc([N+](=O)[O-])c1)C(=O)O` (stereo not shown), the “hERG current change (%, negative = inhibition) at 10uM” value was found to be 3.23%.

`CNS(=O)(=O)c1cccc(C(=O)OCc2cc(=O)oc3c(C)c(O)ccc23)c1`: the “hERG current change (%, negative = inhibition) at 10uM” value is 14.1%.

Regarding `CCOC(=O)c1[nH]ncc1CN1CCCC(C(=O)c2ccc(SC)cc2)C1` (stereo not shown), the “hERG current change (%, negative = inhibition) at 10uM” value was -73%.

Take `O=C(COc1ccccc1Cl)N1N=C(c2cccs2)CC1c1ccco1` (stereo not shown): the “hERG current change (%, negative = inhibition) at 10uM” value is -3.58%.

For the compound `O=C(c1cccs1)N1CCN=C1SCc1cccnc1`, the “hERG current change (%, negative = inhibition) at 10uM” value is -3.92%.

Consider `CCCCn1c(SCC(=O)Nc2cc(C(F)(F)F)cc(C(F)(F)F)c2)nnc1C(CC)N(C)C` (stereo not shown), for which the “hERG current change (%, negative = inhibition) at 10uM” value was -23.3%.

In the case of `COc1ccc(C(=O)N/N=C(/C)c2cccc(NC(=O)c3ccncc3)c2)cc1OC`, the “hERG current change (%, negative = inhibition) at 10uM” value is listed as 8.48%.

With `CCc1cccc(NC(=O)Cn2ncn3c(cc4ccccc43)c2=O)c1`, the “hERG current change (%, negative = inhibition) at 10uM” value was -2.08%.

For the compound `COc1ccc(C(CC(=O)Nc2ccccn2)N2Cc3ccccc3C2=O)cc1OC` (stereo not shown), the “hERG current change (%, negative = inhibition) at 10uM” value is reported as -13.4%.

Consider `CC(C)c1c(C(=O)N/N=C/c2ccccc2OCc2c(F)cccc2Cl)nnn1-c1nonc1N`, for which the “hERG current change (%, negative = inhibition) at 10uM” value is on record as 13.6%.

For the compound `COC(=O)c1ccccc1NC(=O)CCS(=O)(=O)c1cc2c(cc1C)NC(=O)CO2`, the “hERG current change (%, negative = inhibition) at 10uM” value is listed as -48.8%.

For the compound `COc1ccc(-n2c(SCC(=O)Nc3cccc(S(N)(=O)=O)c3)nc3ccccc3c2=O)cc1OC`, the “hERG current change (%, negative = inhibition) at 10uM” value is 9.06%.

`C/C(=N\NS(=O)(=O)c1ccc([N+](=O)[O-])cc1)c1ccc2c(c1)OCO2`: the “hERG current change (%, negative = inhibition) at 10uM” value is 9.41%.

Regarding `CCN(CC)c1ccc(NC(=O)CSc2nnc3nc(C)cc(C)n23)cc1`, the “hERG current change (%, negative = inhibition) at 10uM” value is -0.579%.

Regarding `COc1cc(C(=O)OCc2cc(=O)oc3c(C)c(C)ccc23)ccc1OC(F)F`, the “hERG current change (%, negative = inhibition) at 10uM” value is recorded as 9.13%.

For `CC(C)CC(=O)Nc1ccc2c3c(cccc13)CC2`, the “hERG current change (%, negative = inhibition) at 10uM” value was -6.07%.

As for `CC1(C)Cc2c(c(N3CCOCC3)nc3snc(Br)c23)CO1`, the “hERG current change (%, negative = inhibition) at 10uM” value is -6.09%.

Take `COC(=O)CCC(=O)OC1(C)C(=O)C=C2C=C(C3CC3)N(Cc3ccc4c(c3)OCO4)C=C2C1=O` (stereo not shown): the “hERG current change (%, negative = inhibition) at 10uM” value came to 10.8%.

In the case of `COC(=O)COc1ccc2oc(=O)cc(-c3cc4cccc(OC)c4o3)c2c1`, the “hERG current change (%, negative = inhibition) at 10uM” value came out at 21.5%.

In the case of `O=C(COC(=O)Cc1cccc(C(F)(F)F)c1)NC1CCS(=O)(=O)C1` (stereo not shown), the “hERG current change (%, negative = inhibition) at 10uM” value was -7.29%.

With `O=C(COc1ccccc1)Nn1cnc2ccccc21`, the “hERG current change (%, negative = inhibition) at 10uM” value is given as -0.626%.

As for `Nc1cc([N+](=O)[O-])ccc1Nc1ccccc1`, the “hERG current change (%, negative = inhibition) at 10uM” value is 6.06%.

As for `CCOC(=O)c1cnc(SCC(=O)Nc2sc(C)c(C)c2C#N)nc1N`, the “hERG current change (%, negative = inhibition) at 10uM” value is 14.2%.

Regarding `Cc1noc(C)c1CSCC(=O)N(C)CC(=O)Nc1ccc(Cl)cc1`, the “hERG current change (%, negative = inhibition) at 10uM” value stood at 13.9%.

Turning to `CCOC(=O)c1[nH]c(C)c(CN(CCc2ccccc2)S(C)(=O)=O)c1C`, the “hERG current change (%, negative = inhibition) at 10uM” value is given as -0.689%.

In the case of `CC(=O)Nc1ccc(S(=O)(=O)N2CCSC2c2ccccc2)cc1` (stereo not shown), the “hERG current change (%, negative = inhibition) at 10uM” value came out at 10.9%.

On to `COCC(C)NCc1ccc(OC)c(Br)c1.O=C(O)C(=O)O` (stereo not shown), for which the “hERG current change (%, negative = inhibition) at 10uM” value worked out at 1.95%.

As for `COc1ccccc1N1CCN(S(=O)(=O)c2cc3c(cc2C)NC(=O)CO3)CC1`, the “hERG current change (%, negative = inhibition) at 10uM” value is -21.4%.

As for `COC(=O)c1cc(OC)c(OC)cc1NC(=O)Cc1ccccc1[N+](=O)[O-]`, the “hERG current change (%, negative = inhibition) at 10uM” value is reported as 2.28%.

Regarding `Cc1cccc(NC(=O)CSc2ncnc3nc[nH]c23)c1C`, the “hERG current change (%, negative = inhibition) at 10uM” value was -0.223%.

With `CC(=O)NCCn1c(SCc2ccc(C)cc2)nc2ccccc2c1=O`, the “hERG current change (%, negative = inhibition) at 10uM” value is given as -31.2%.

Consider `Cc1sc2c3ccsc3ccc2[n+]1C.[I-]`, for which the “hERG current change (%, negative = inhibition) at 10uM” value stood at 32.7%.

`CCc1ccccc1NC(=O)C1c2ccccc2Oc2ccccc21`: the “hERG current change (%, negative = inhibition) at 10uM” value is recorded as 30.7%.

Turning to `Cc1nn(S(=O)(=O)c2cccs2)c(C)c1Sc1ccc([N+](=O)[O-])cc1`, the “hERG current change (%, negative = inhibition) at 10uM” value was -5.62%.

As to `CC1=C(C(=O)Nc2ccccn2)C(c2ccc(Br)cc2)NC(=S)N1` (stereo not shown), the “hERG current change (%, negative = inhibition) at 10uM” value came out at 6.41%.

Regarding `COc1cccc(NC(=O)CSc2nnc(Cn3c(=O)sc4ccccc43)n2C)c1`, the “hERG current change (%, negative = inhibition) at 10uM” value was -11.2%.

As for `NS(=O)(=O)c1ccc(NC(=S)NNC(=O)c2ccc(Br)o2)cc1`, the “hERG current change (%, negative = inhibition) at 10uM” value amounted to 18.7%.

For the compound `COc1ccc(-c2ccc(S(=O)(=O)N3CCCC3)cc2)cc1`, the “hERG current change (%, negative = inhibition) at 10uM” value came out at 22.3%.

Take `CC1CCCN(C(=O)COC(=O)CNC(=O)c2ccc(Br)cc2)C1` (stereo not shown): the “hERG current change (%, negative = inhibition) at 10uM” value was -8.3%.

In the case of `CC(=O)O/N=C(/c1nonc1N)N(C)C`, the “hERG current change (%, negative = inhibition) at 10uM” value is listed as 12.4%.

Take `COC(=O)Nc1ccc(OCC(=O)N2CCOCC2)cc1`: the “hERG current change (%, negative = inhibition) at 10uM” value is given as -5.16%.

For the compound `Cc1ccc(N=Cc2c(O)n(-c3ccc(C)cc3)c(=O)[nH]c2=O)cc1`, the “hERG current change (%, negative = inhibition) at 10uM” value was determined as 9.48%.

For the compound `CN1C2CCC1CC(NS(=O)(=O)c1ccc(C#N)cc1)C2` (stereo not shown), the “hERG current change (%, negative = inhibition) at 10uM” value worked out at 4.16%.

Consider `O=C(CN1CCN(C(=S)NC2CCCC2)CC1)Nc1ccc(Oc2ccccc2)cc1`, for which the “hERG current change (%, negative = inhibition) at 10uM” value is listed as -25%.

For `O=C1CC(c2cccc(Br)c2)C2=C(CCCC2=O)N1` (stereo not shown), the “hERG current change (%, negative = inhibition) at 10uM” value came out at 2.43%.

As for `CCCCN(C(=O)c1ccc(N(C)S(=O)(=O)c2ccc(C)cc2)cc1)c1c(N)n(CCC)c(=O)[nH]c1=O`, the “hERG current change (%, negative = inhibition) at 10uM” value was 16.2%.

`CC(CCc1ccccc1)NCC(O)c1ccc(O)c(C(N)=O)c1.Cl` (stereo not shown): the “hERG current change (%, negative = inhibition) at 10uM” value is on record as -30.6%.

For the compound `Nc1ccc(C(=O)OCC(=O)N2CCc3ccccc3C2)cc1[N+](=O)[O-]`, the “hERG current change (%, negative = inhibition) at 10uM” value was -21.1%.

With `CN1CCN(c2ccccc2NC(=O)COc2ccc(Br)cc2)CC1`, the “hERG current change (%, negative = inhibition) at 10uM” value is -58%.

Regarding `CCn1c(SCC(=O)Nc2oc(-c3ccccc3)c(-c3ccccc3)c2C#N)nnc1-c1ccco1`, the “hERG current change (%, negative = inhibition) at 10uM” value was -30.8%.

As to `CCOC(=O)C1=C(C)NC(=O)NC1/C(C)=C/c1ccccc1` (stereo not shown), the “hERG current change (%, negative = inhibition) at 10uM” value is reported as -5.3%.

Take `Cc1ccc(O)c(NC(=S)NC(=O)CC(C)C)c1`: the “hERG current change (%, negative = inhibition) at 10uM” value came to 1.63%.

For the compound `Cc1cccc(-c2nc3c(c(SCC(=O)N4CCCC4)n2)COC(C)(C)C3)c1`, the “hERG current change (%, negative = inhibition) at 10uM” value was -2.05%.

On to `O=C(c1ccc(COc2ccc(Cl)cc2Cl)o1)N1CCCC1`, for which the “hERG current change (%, negative = inhibition) at 10uM” value was -43.1%.
